Out of some 280,000 compounds screened, about 1,100 (0.39%) were called active. Inconclusive results, whose numbers are uncertain, are shown with a selection of clear calls. The call rests on the fitted dose curve; in most records, active means well fitted inhibition curve with a large enough effect; inconclusive means small, poorly fitted or top-dose-only effect, or effect the other way; inactive means flat fitted curve, though single readings scatter. No potency is given beside an inconclusive call; the fits are too rough.
Molecular target: Microtubule-associated protein tau (Homo sapiens) (UniProt P10636)
Assay: qHTS for Inhibitors of Tau Fibril Formation, Fluorescence Polarization; further: nearly all actives have a fitted effect of over 55% in size
Conditions: K18 P301L tau heparin fibrillization, Alexa594 FP, 6 h; series mostly up to 57.7 µM; activity, negative = inhibition: at the top concentration
Outline: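 Recombinant K18 P301L […], labeled with Alexa 594 at 0.24 uM over 15 uM unlabeled; heparin inducer 20 uM final; 37 C, 6 hr; FP endpoint.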
On the % scale 0 is the no-effect control and ±100 the full control effect; potency means the concentration at half of the fitted maximal effect; tags describe the fitted curve by direction and shape.

UniProt P10636, sequence (P10636 whole entry, looked up): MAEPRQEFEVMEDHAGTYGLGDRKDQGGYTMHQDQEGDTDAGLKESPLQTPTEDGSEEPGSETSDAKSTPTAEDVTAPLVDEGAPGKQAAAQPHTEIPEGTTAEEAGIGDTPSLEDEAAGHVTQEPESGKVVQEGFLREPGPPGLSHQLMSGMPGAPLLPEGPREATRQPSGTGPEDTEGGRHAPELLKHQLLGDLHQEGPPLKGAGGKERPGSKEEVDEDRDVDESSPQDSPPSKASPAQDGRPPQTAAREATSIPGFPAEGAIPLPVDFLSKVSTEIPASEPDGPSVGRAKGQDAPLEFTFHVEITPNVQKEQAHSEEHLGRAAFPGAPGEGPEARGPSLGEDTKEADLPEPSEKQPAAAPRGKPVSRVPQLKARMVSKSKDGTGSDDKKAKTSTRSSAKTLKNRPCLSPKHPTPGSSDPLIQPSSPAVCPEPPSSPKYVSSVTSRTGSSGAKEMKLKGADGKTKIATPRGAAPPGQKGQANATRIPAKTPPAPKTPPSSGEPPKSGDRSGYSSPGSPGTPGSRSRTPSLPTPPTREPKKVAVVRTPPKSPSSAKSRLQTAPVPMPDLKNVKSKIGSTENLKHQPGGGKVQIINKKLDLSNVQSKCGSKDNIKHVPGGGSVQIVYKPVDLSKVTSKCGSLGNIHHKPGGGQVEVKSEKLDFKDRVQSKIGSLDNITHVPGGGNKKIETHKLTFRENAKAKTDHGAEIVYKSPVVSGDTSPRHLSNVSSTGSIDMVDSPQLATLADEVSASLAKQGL

Row | SMILES | Potency | activity, negative = inhibition
1 | Cc1cc(Nc2cccc(Cl)c2)nc2ccc(NC(=O)Cc3cccc(C(F)(F)F)c3)cc12 | inconclusive [inhibitor, single point] | –
2 | CCCOc1ccc(-c2nn(-c3ccccc3)cc2/C=C2\SC(N)=NC2=O)cc1 | – | inactive: -14%
3 | COc1cc2cc(CN(Cc3cccs3)C(=S)Nc3ccc(C)cc3)c(=O)[nH]c2cc1OC | inconclusive [inhibitor, partial curve, poor fit] | –
4 | O=C(/C=C\c1ccccc1[N+](=O)[O-])Nc1ccccc1 | – | inactive: 7.32%
5 | O=C(CNS(=O)(=O)c1cccs1)N1CCN(c2cccc(C(F)(F)F)c2)CC1 | – | inactive: 6.54%
6 | CNc1ccc(Br)cc(C(=O)/C=C/c2ccc(Cl)cc2Cl)c1=O | inconclusive [inhibitor, partial curve] | –
7 | COc1cc(OC)c(C(=O)OC(C)C(=O)Nc2cccc(C(F)(F)F)c2)cc1OC (stereo not given) | – | inactive: 6.77%
8 | COc1cc(CN2CCN(S(=O)(=O)c3ccccc3)CC2)cc(OC)c1O | inconclusive [inhibitor, single point] | –
9 | C=CCNC(=O)C1CC(=O)N(c2ccc(OCC(=O)Nc3ccc(Cl)c(C(F)(F)F)c3)cc2)C1 (stereo not given) | inconclusive [inhibitor, single point] | –
10 | Cc1cc(C)nc(-n2ncc3c2CC(c2ccccc2)CC3=O)n1 (stereo not given) | – | inactive: 0.713%
11 | O=C(CSc1nc(Cc2ccccc2)nc2ccccc12)Nc1ccc2c(c1)OCCO2 | inconclusive [inhibitor, single point] | –
12 | COC(=O)c1cc(C)[nH]c2c(C)cc3nc4ccccc4c3c12 | inconclusive [inhibitor, partial curve] | –
13 | COc1ccc(C(=O)OCCc2ccc(O)cc2)cc1 | – | inactive: -11%
14 | CCOc1ccc(C(=O)c2cn(CC(=O)Nc3ccc(Cl)cc3)c3cc4c(cc3c2=O)OCCO4)cc1 | inconclusive [inhibitor, single point] | –
15 | Cc1ccccc1Cn1c(CN2CCCC(C)C2)nc2c1c(=O)n(C)c(=O)n2C (stereo not given) | – | inactive: -4.69%
16 | O=C(N/N=C/c1c(O)n(Cc2ccco2)c(=O)[nH]c1=O)c1ccccc1 | – | inactive: 0.942%
17 | COc1ccc(OC)c(-n2c(C)ccc2-c2ccc(S(C)(=O)=O)cc2)c1 | inconclusive [activator, partial curve] | –
18 | COc1ccccc1NC(=O)c1c(NC(=O)CCC(=O)O)sc2c1CCCCC2 | inconclusive [inhibitor, single point] | –
19 | CCN(CC)S(=O)(=O)c1ccc(C(=O)N2CCN(CCN3C(=O)c4cccc5cccc(c45)C3=O)CC2)cc1 | inconclusive [activator, full curve, poor fit] | –
20 | COc1cc2c(=O)n(CCc3ccccc3)c(=O)n(CC(=O)Nc3ccccc3)c2cc1OC | inconclusive [inhibitor, partial curve] | –
21 | COc1ccc(/C=C2/C(=O)ON=C2c2ccccc2)cc1OC | – | inactive: 1.73%
22 | COc1ccc(-c2cnnn2-c2ccc(NC(=O)c3ccc(S(=O)(=O)N4CCCCC4)cc3)cc2)cc1 | inconclusive [inhibitor, partial curve, poor fit] | –

Row | SMILES | Potency | activity, negative = inhibition
23 | CCOc1ccc(NC(=O)Cn2cc(C(=O)c3ccco3)c3ccccc32)cc1 | inconclusive [inhibitor, single point] | –
24 | COc1ccc(S(=O)(=O)N(CCc2ccccc2)CC(=O)NCCCO)cc1 | inconclusive [inhibitor, partial curve, poor fit] | –
25 | Cc1ccc(N2C(=O)CSC23C(=O)N(CC(=O)Nc2ccc(C(C)C)cc2)c2ccccc23)cc1C (stereo not given) | inconclusive [inhibitor, single point] | –
26 | Clc1cccc(C=NC=Nc2cccc(Cl)c2)c1 | inconclusive [inhibitor, full curve, poor fit] | –
27 | Cc1cccc(N2CCN(S(=O)(=O)c3cc(C(=O)Nc4ccccc4Cl)ccc3F)CC2)c1C | inconclusive [inhibitor, partial curve] | –
28 | COC(=O)c1cccc(Nc2nc(-c3cccnc3)nc3ccccc23)c1 | inconclusive [inhibitor, single point] | –
29 | COc1ccc(NS(=O)(=O)c2cc(NC(=O)/C=C/c3cc(OC)ccc3OC)ccc2N2CCCCC2)cc1 | inconclusive [inhibitor, single point] | –
30 | Cc1onc(-c2ccc(Cl)cc2)c1-c1ccnc(SCC(=O)Nc2cc(Cl)cc(Cl)c2)n1 | inconclusive [inhibitor, partial curve] | –
31 | Fc1ccc(CNc2nc(-c3ccccc3)nc3ccccc23)cc1 | inconclusive [inhibitor, partial curve] | –
32 | COc1cc(/C=C(\C#N)c2nc3ccccc3o2)ccc1O | inconclusive [activator, partial curve, poor fit] | –
33 | Cc1ccc2[nH]c(CSc3nnc(NC(=O)c4ccc(Cl)cc4)s3)cc(=O)c2c1 | inconclusive [inhibitor, partial curve] | –
34 | Cc1nn(CCCC(=O)N2CCc3ccccc3C2)c(=O)c2cc3sccc3n12 | – | inactive: 2.61%
35 | O=C(CSc1nc(C2CC2)nc2ccccc12)N1CCc2ccccc2C1 | inconclusive [inhibitor, full curve] | –
36 | COc1ccc(OC)c(CCNc2nc3ccccc3c3nc(-c4cccnc4)nn23)c1 | – | inactive: -7.4%
37 | COc1ccccc1N1CCN(CC(O)COc2c(OC)cccc2OC)CC1 (stereo not given) | inconclusive [inhibitor, partial curve, poor fit] | –
38 | Cc1c(-c2nsc(NC(=O)c3cccc(Cl)c3)n2)nnn1-c1ccccc1C(F)(F)F | inconclusive [inhibitor, partial curve, poor fit] | –
39 | CCOc1ccc(CCNC(=O)CCc2c(C)nc3cc(-c4ccccc4OC)nn3c2C)cc1 | inconclusive [activator, single point] | –
40 | Cc1cc(C)cc(N=C2NC(=O)/C(=C/c3cccs3)S2)c1 | inconclusive [inhibitor, single point] | –
41 | O=C(Nc1cccc(S(=O)(=O)N2CCOCC2)c1)c1cn(-c2ccccc2)nc1-c1ccc(F)cc1 | inconclusive [inhibitor, full curve, poor fit] | –
42 | Nc1c(-c2nc(-c3ccc4c(c3)OCO4)cs2)c2ccccn2c1C(=O)c1ccccc1 | inconclusive [activator, single point] | –
43 | COc1cc(C(=O)N2CCc3c([nH]c4ccccc34)C2c2ccc(C)cc2)cc(OC)c1OC (stereo not given) | – | inactive: -0.253%
44 | CC(=O)c1c(C)[nH]c(C(=O)OCC(=O)Nc2sc3c(c2C#N)CCCC3)c1C | inconclusive [inhibitor, single point] | –

Row | SMILES | Potency | activity, negative = inhibition
45 | CN1CCN(Cn2cc(/C=C/C(=O)c3ccccc3)c3ccccc32)CC1 | inconclusive [activator, single point] | –
46 | COc1ccc(NC(=O)CC2C(=O)N(c3ccc(F)cc3)C(=S)N2NC(=O)c2ccc(Cl)cc2)cc1 (stereo not given) | inconclusive [inhibitor, partial curve, poor fit] | –
47 | O=C(CN1C(=O)CSCC1=O)NCc1ccc(F)cc1 | inconclusive [inhibitor, single point] | –
48 | COc1ccc(N2C(=O)/C(=C/N(C)C)NC2=S)cc1 | – | inactive: -5.55%
49 | C=CCc1c(C)nc(C)nc1N/N=C/c1ccc(F)cc1 | – | inactive: 9.51%
50 | COc1cccc(-c2nc(SCC(=O)NC3CCCC3)c(-c3ccccc3)[nH]2)c1 | inconclusive [activator, partial curve] | –
51 | CCOC(=O)C1=C(C)OC2(O)c3ccccc3C(=O)C12O (stereo not given) | active: 1.41 µM | –
52 | CCOc1ccc(-c2nc(SCC(=O)NC3CCCC3)c(-c3ccccc3)[nH]2)cc1OC | inconclusive [activator, full curve] | –
53 | CC(C)Oc1ccc(CNC(=O)CC(c2ccccc2)c2cc(Cl)ccc2O)cc1 (stereo not given) | inconclusive [inhibitor, single point] | –
54 | CC(C)c1ccc(/C=N/NC(=O)c2cc(-c3cccc([N+](=O)[O-])c3)n[nH]2)cc1 | inconclusive [inhibitor, full curve] | –
55 | COC(=O)CSc1nnc(C2COc3ccccc3O2)n1-c1ccccc1 (stereo not given) | – | inactive: -0.834%
56 | Cc1ccc2c(c1)N(C(=O)Nc1cccc(C)c1C)CCO2 | inconclusive [inhibitor, single point] | –
57 | CCOC(=O)c1c(NC(=O)c2cccs2)sc(C)c1CC | inconclusive [inhibitor, single point] | –
58 | CCCS(=O)(=O)c1c(S(=O)(=O)CCC)c2c3ccccc3ccn2c1C(=O)OC | inconclusive [inhibitor, single point] | –
59 | Cc1ccccc1N=C1NN=C(c2ccccc2F)CS1 | inconclusive [inhibitor, partial curve] | –
60 | O=[N+]([O-])c1ccc(/C=C/c2ccc3ccccc3n2)cc1 | – | inactive: 11.8%
61 | COc1ccc(N2CCN(c3oc(COc4ccccc4)nc3C#N)CC2)cc1 | inconclusive [activator, partial curve] | –
62 | Cc1cc(=O)oc2c1c(C)nn2-c1ccc(C(=O)OC(C)C)cc1 | – | inactive: -4.19%
63 | CC(=O)N1CC(=O)N=C1SCC(=O)Nc1nc(C)c(-c2ccccc2)s1 | inconclusive [inhibitor, partial curve] | –
64 | Cc1ccc(C)c(NC(=S)NC2CC3CCCC(C2)N3CC(C)C)c1 (stereo not given) | – | inactive: 1.87%
65 | Cc1cc(C)c(O)c(-c2cc(C(=O)Nc3cccnc3)[nH]n2)c1 | inconclusive [inhibitor, single point] | –

Reference: PubChem BioAssay AID1468 (National Center for Advancing Translational Sciences (NCATS), 2008)
